Measured values from US20070004634A1 (Novo Nordisk A/S, priority 1998, published 2007).
Part of at least one peptide drawing is inferred or uncertain, most often the ends. At least one structure is not confirmed: it was looked up by name or label, or the drawing left a doubt. Residues, ends and D or L forms follow the SMILES beside them. No end group written: not given here.

Test system: free fat cells (adipocytes)
Experiment: Adipocyte / free fat cell (FFC) assay, 3H glucose incorporation into lipid
[1] = FFC assay potency grade, 0, + to ++++++, −
[2] = free fat cell assay potency class, Table 7

Compound	FFC [1]	FFC [2]
CC(C)[C@H](NC(=O)[C@H](Cc1ccccc1)NC(=O)[C@H](Cc1c[nH]c2ccccc12)NC(=O)CNC(=O)[C@H](Cc1ccc(O)cc1)NC(=O)[C@H](Cc1ccccc1)NC(=O)[C@H](CC(N)=O)NC(=O)[C@H](CCC(=O)O)NC(=O)[C@H](Cc1c[nH]cn1)NC(=O)[C@@H](N)Cc1ccccc1)C(=O)N[C@@H](CCCNC(=N)N)C(=O)N[C@@H](CCC(N)=O)C(=O)N[C@H](C(=O)N[C@@H](CO)C(=O)N[C@@H](CCCCN)C(=O)N[C@@H](CCCCN)C(=O)O)C(C)C [Peptide S116]	++	
CC(C)[C@H](NC(=O)[C@H](Cc1ccccc1)NC(=O)[C@H](Cc1c[nH]c2ccccc12)NC(=O)[C@H](CC(=O)O)NC(=O)[C@H](Cc1ccc(O)cc1)NC(=O)[C@H](Cc1ccccc1)NC(=O)[C@H](CC(N)=O)NC(=O)[C@H](CCC(=O)O)NC(=O)[C@H](Cc1c[nH]cn1)NC(=O)[C@H](Cc1ccccc1)NC(=O)CNC(=O)CNC(=O)[C@@H](N)CS)C(=O)N[C@@H](CCCNC(=N)N)C(=O)N[C@@H](CCC(N)=O)C(=O)N[C@H](C(=O)N[C@@H](CO)C(=O)N[C@@H](CCCCN)C(=O)N[C@@H](CCCCN)C(=O)O)C(C)C [Peptide S227]	++	
CC(C)C[C@H](NC(=O)[C@H](CCC(N)=O)NC(=O)[C@H](CCCNC(=N)N)NC(=O)[C@H](CCC(=O)O)NC(=O)[C@H](Cc1ccccc1)NC(=O)[C@H](Cc1c[nH]c2ccccc12)NC(=O)[C@H](CC(=O)O)NC(=O)[C@H](Cc1ccc(O)cc1)NC(=O)[C@H](Cc1ccccc1)NC(=O)[C@H](CO)NC(=O)[C@H](CCC(=O)O)NC(=O)[C@H](CO)NC(=O)[C@@H]1CCCN1C(=O)[C@@H]1CSSC[C@H](NC(=O)[C@@H](NC(=O)[C@H](Cc2c[nH]c3ccccc23)NC(=O)[C@H](C)NC(=O)[C@H](Cc2c[nH]c3ccccc23)NC(=O)[C@H](CCC(=O)O)NC(=O)[C@H](CCC(N)=O)NC(=O)[C@H](CC(=O)O)NC(=O)[C@@H](N)CC(C)C)C(C)C)C(=O)N[C@@H](CCC(=O)O)C(=O)N[C@@H](C(C)C)C(=O)N[C@@H](Cc2ccc(O)cc2)C(=O)NCC(=O)N[C@@H](CCCNC(=N)N)C(=O)NCC(=O)N1)C(=O)NCC(=O)O [Peptide S485] (HELM PEPTIDE1{L.D.Q.E.W.A.W.V.C.E.V.Y.G.R.G.C.P.S.E.S.F.Y.D.W.F.E.R.Q.L.G}$PEPTIDE1,PEPTIDE1,9:R3-16:R3$$$V2.0; N-terminus and C-terminus assumed; bridges inferred)		0
CC(C)C[C@H](NC(=O)[C@H](CCC(=O)O)NC(=O)[C@H](C)NC(=O)[C@@H](NC(=O)[C@H](Cc1ccccc1)NC(=O)[C@H](Cc1c[nH]c2ccccc12)NC(=O)[C@H](CC(=O)O)NC(=O)[C@H](Cc1ccc(O)cc1)NC(=O)[C@H](Cc1ccccc1)NC(=O)[C@H](CC(N)=O)NC(=O)[C@H](C)NC(=O)[C@H](CC(N)=O)NC(=O)[C@H](CCCNC(=N)N)NC(=O)[C@H](CCC(N)=O)NC(=O)[C@H](CC(C)C)NC(=O)[C@H](Cc1c[nH]c2ccccc12)NC(=O)[C@H](CC(=O)O)NC(=O)[C@@H](N)CNC(=O)CON)C(C)C)C(N)=O [Peptide S295]	+	
CC(C)C[C@H](NC(=O)[C@H](CCC(=O)O)NC(=O)[C@H](C)NC(=O)[C@@H](NC(=O)[C@H](Cc1ccccc1)NC(=O)[C@H](Cc1c[nH]c2ccccc12)NC(=O)[C@H](CC(=O)O)NC(=O)[C@H](Cc1ccc(O)cc1)NC(=O)[C@H](Cc1ccccc1)NC(=O)[C@H](CC(N)=O)NC(=O)[C@H](C)NC(=O)[C@H](CC(N)=O)NC(=O)[C@H](CCCNC(=N)N)NC(=O)[C@H](CCC(N)=O)NC(=O)[C@H](CC(C)C)NC(=O)[C@H](Cc1c[nH]c2ccccc12)NC(=O)[C@@H](N)CC(=O)O)C(C)C)C(=O)NCC(=O)O [Peptide S236]	++	
CC(C)C[C@H](NC(=O)[C@H](CCC(=O)O)NC(=O)[C@H](C)NC(=O)[C@@H](NC(=O)[C@H](Cc1ccccc1)NC(=O)[C@H](Cc1c[nH]c2ccccc12)NC(=O)[C@H](CC(=O)O)NC(=O)[C@H](Cc1ccc(O)cc1)NC(=O)[C@H](Cc1ccccc1)NC(=O)[C@H](CC(N)=O)NC(=O)[C@H](C)NC(=O)[C@H](CC(N)=O)NC(=O)[C@H](CCCNC(=N)N)NC(=O)[C@H](CCC(N)=O)NC(=O)[C@H](CC(C)C)NC(=O)[C@H](Cc1c[nH]c2ccccc12)NC(=O)[C@H](CC(=O)O)NC(=O)[C@@H](NC(=O)[C@H](CCCNC(=N)N)NC(=O)CN)C(C)C)C(C)C)C(=O)O [Peptide S248]	++	
GSLDESFYDWFERQL [Peptide S395]		++
CC(C)[C@H](NC(=O)[C@H](Cc1ccccc1)NC(=O)[C@H](Cc1c[nH]c2ccccc12)NC(=O)[C@H](C)NC(=O)[C@H](Cc1ccc(O)cc1)NC(=O)[C@H](Cc1ccccc1)NC(=O)[C@H](CC(N)=O)NC(=O)[C@H](CCC(=O)O)NC(=O)[C@H](Cc1c[nH]cn1)NC(=O)[C@@H](N)Cc1ccccc1)C(=O)N[C@@H](CCCNC(=N)N)C(=O)N[C@@H](CCC(N)=O)C(=O)N[C@H](C(=O)N[C@@H](CO)C(=O)N[C@@H](CCCCN)C(=O)N[C@@H](CCCCN)C(=O)O)C(C)C [Peptide S221]	+	
CC(C)C[C@H](NC(=O)[C@H](CCC(=O)O)NC(=O)[C@H](C)NC(=O)[C@@H](NC(=O)[C@H](Cc1ccccc1)NC(=O)[C@H](Cc1c[nH]c2ccccc12)NC(=O)[C@H](CC(=O)O)NC(=O)[C@H](Cc1ccc(O)cc1)NC(=O)[C@H](Cc1ccccc1)NC(=O)[C@H](CC(N)=O)NC(=O)[C@H](C)NC(=O)[C@H](CC(N)=O)NC(=O)[C@H](CCCNC(=N)N)NC(=O)[C@H](CCC(N)=O)NC(=O)[C@H](CC(C)C)NC(=O)[C@H](Cc1c[nH]c2ccccc12)NC(=O)[C@H](CC(=O)O)NC(=O)[C@@H](NC(=O)[C@H](CCCNC(=N)N)NC(=O)CNC(=O)[C@@H](N)CNC(=O)CON)C(C)C)C(C)C)C(=O)NCC(N)=O [Peptide S245]	+	
EHWNTVDPFYQYFAELLRESGA [Peptide S345]	0	
CC[C@H](C)[C@H](NC(=O)[C@H](C)NC(=O)[C@H](CC(N)=O)NC(=O)[C@H](Cc1ccc(O)cc1)NC(=O)[C@H](Cc1ccccc1)NC(=O)CNC(=O)[C@H](CC(=O)O)NC(=O)[C@@H](N)CO)C(=O)N[C@@H](CCC(=O)O)C(=O)N[C@@H](CC(C)C)C(=O)N[C@@H](CC(C)C)C(=O)N[C@@H](CO)C(=O)O [Peptide S118]	+	
CC(C)C[C@H](NC(=O)[C@H](CCC(=O)O)NC(=O)[C@H](C)NC(=O)[C@@H](NC(=O)[C@H](Cc1ccccc1)NC(=O)[C@H](Cc1c[nH]c2ccccc12)NC(=O)[C@H](CC(=O)O)NC(=O)[C@H](Cc1ccc(O)cc1)NC(=O)[C@H](Cc1ccccc1)NC(=O)[C@H](CC(N)=O)NC(=O)[C@H](C)NC(=O)[C@H](CC(N)=O)NC(=O)[C@H](CCCNC(=N)N)NC(=O)[C@H](CCC(N)=O)NC(=O)[C@H](CC(C)C)NC(=O)[C@H](Cc1c[nH]c2ccccc12)NC(=O)[C@H](CC(=O)O)NC(=O)[C@@H](NC(=O)[C@H](CCCNC(=N)N)NC(=O)CN)C(C)C)C(C)C)C(=O)NCC(=O)NC(CNC(=O)CON)C(N)=O (stereo partly drawn) [Peptide S244]	++	
CC(C)[C@H](NC(=O)[C@H](Cc1ccccc1)NC(=O)[C@H](Cc1c[nH]c2ccccc12)NC(=O)[C@H](CC(=O)O)NC(=O)[C@H](Cc1ccc(O)cc1)NC(=O)[C@H](Cc1ccccc1)NC(=O)[C@H](CC(N)=O)NC(=O)[C@H](CCC(=O)O)NC(=O)[C@H](Cc1c[nH]cn1)NC(=O)[C@@H](N)Cc1ccccc1)C(=O)N[C@@H](CCCNC(=N)N)C(=O)N[C@@H](CCC(N)=O)C(=O)N[C@H](C(=O)N[C@@H](CO)C(=O)N[C@@H](CCCCN)C(=O)N[C@@H](CCCCN)C(=O)N[C@@H](CNC(=O)CON)C(N)=O)C(C)C [Peptide S131]	+	
FHENFYDWFVRQVSK [Peptide S158]	+	
CC(C)C[C@H](NC(=O)[C@H](CCC(=O)O)NC(=O)[C@H](C)NC(=O)[C@@H](NC(=O)[C@H](Cc1ccccc1)NC(=O)[C@H](Cc1c[nH]c2ccccc12)NC(=O)[C@H](CC(=O)O)NC(=O)[C@H](Cc1ccc(O)cc1)NC(=O)[C@H](Cc1ccccc1)NC(=O)[C@H](CC(N)=O)NC(=O)[C@H](C)NC(=O)[C@H](CC(N)=O)NC(=O)[C@H](CCCNC(=N)N)NC(=O)[C@H](CCC(N)=O)NC(=O)[C@H](CC(C)C)NC(=O)[C@H](Cc1c[nH]c2ccccc12)NC(=O)[C@@H](N)CC(=O)O)C(C)C)C(=O)N[C@@H](CNC(=O)CON)C(N)=O [Peptide S294]	++	
CC(C)[C@H](NC(=O)[C@H](Cc1ccccc1)NC(=O)[C@H](Cc1c[nH]c2ccccc12)NC(=O)[C@H](CC(=O)O)NC(=O)[C@H](Cc1ccc(O)cc1)NC(=O)[C@H](Cc1ccccc1)NC(=O)[C@H](CC(N)=O)NC(=O)[C@H](CCC(=O)O)NC(=O)[C@H](Cc1c[nH]cn1)NC(=O)[C@H](Cc1ccccc1)NC(=O)CNC(=O)[C@@H](N)CS)C(=O)N[C@@H](CCCNC(=N)N)C(=O)N[C@@H](CCC(N)=O)C(=O)N[C@H](C(=O)N[C@@H](CO)C(=O)N[C@@H](CCCCN)C(=O)N[C@@H](CCCCN)C(=O)O)C(C)C [Peptide S171]	+++	
CC(C)C[C@H](NC(=O)[C@H](CCC(=O)O)NC(=O)[C@H](C)NC(=O)[C@@H](NC(=O)[C@H](Cc1ccccc1)NC(=O)[C@H](Cc1c[nH]c2ccccc12)NC(=O)[C@H](CC(=O)O)NC(=O)[C@H](Cc1ccc(O)cc1)NC(=O)[C@H](Cc1ccccc1)NC(=O)[C@H](CC(N)=O)NC(=O)[C@H](C)NC(=O)[C@H](CC(N)=O)NC(=O)[C@H](CCCNC(=N)N)NC(=O)[C@H](CCC(N)=O)NC(=O)[C@H](CC(C)C)NC(=O)[C@H](Cc1c[nH]c2ccccc12)NC(=O)[C@H](CC(=O)O)NC(=O)[C@@H](N)C(C)C)C(C)C)C(=O)NCC(=O)O [Peptide S235]	++	
CC(C)C[C@H](NC(=O)[C@H](CCC(N)=O)NC(=O)[C@H](CCCNC(=N)N)NC(=O)[C@H](CCC(=O)O)NC(=O)[C@H](Cc1ccccc1)NC(=O)[C@H](Cc1c[nH]c2ccccc12)NC(=O)[C@H](CC(=O)O)NC(=O)[C@H](Cc1ccc(O)cc1)NC(=O)[C@H](Cc1ccccc1)NC(=O)[C@H](CO)NC(=O)[C@H](CCC(=O)O)NC(=O)[C@@H](N)CC(=O)O)C(=O)NCC(=O)O [Peptide S389]	+	
